Some of the results follow. Values were computed here from the reads of four pooled replicates and scatter widely.

This experiment has as its target T1, Pho4 (S. cerevisiae) (UniProt P07270).
T1 sequence: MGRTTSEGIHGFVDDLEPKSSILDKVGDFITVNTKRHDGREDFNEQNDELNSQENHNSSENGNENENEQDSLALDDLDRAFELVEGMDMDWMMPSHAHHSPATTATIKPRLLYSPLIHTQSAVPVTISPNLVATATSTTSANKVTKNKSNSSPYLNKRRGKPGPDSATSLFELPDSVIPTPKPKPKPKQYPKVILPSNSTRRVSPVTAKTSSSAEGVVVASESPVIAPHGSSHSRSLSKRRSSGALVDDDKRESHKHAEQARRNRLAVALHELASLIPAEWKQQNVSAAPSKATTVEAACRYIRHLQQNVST
Kind of experiment: relative binding free energy (BET-seq); higher = weaker binding. The conditions noted are these: reference: library average.
With AAGTTCACGTGGGTAA, the “relative binding free energy” value is 0.1 kcal/mol.

With TTATACACGTGAGTAG, the “relative binding free energy” value is 0.31 kcal/mol.

Regarding CGGTGCACGTGAAGAT, the “relative binding free energy” value was 0.23 kcal/mol.

As for AGAACCACGTGGGTGT, the “relative binding free energy” value was -0.17 kcal/mol.

On to GGGTACACGTGTGGCG, for which the “relative binding free energy” value was 0.08 kcal/mol.

TAGGACACGTGTGTGA: the “relative binding free energy” value was -0.02 kcal/mol.

As for GGTCGCACGTGGTGAT, the “relative binding free energy” value was -0.2 kcal/mol.

Take CTCGGCACGTGATGGG: the “relative binding free energy” value is -0.01 kcal/mol.

As to GTTATCACGTGGTCAG, the “relative binding free energy” value was found to be 0.05 kcal/mol.

GTAGGCACGTGCGTTG: the “relative binding free energy” value is -0.19 kcal/mol.

With TTGGGCACGTGCGATG, the “relative binding free energy” value is -0.09 kcal/mol.

For TGTGACACGTGGGCCA, the “relative binding free energy” value is -0.05 kcal/mol.

Take CGTAACACGTGTGATG: the “relative binding free energy” value was found to be 0.11 kcal/mol.

Take GAGAGCACGTGATTTT: the “relative binding free energy” value came out at 0.13 kcal/mol.

Turning to TTAAACACGTGGGCGT, the “relative binding free energy” value was -0.21 kcal/mol.

With TATGTCACGTGGTCGA, the “relative binding free energy” value is -0.06 kcal/mol.

Take TGGTACACGTGGAGAG: the “relative binding free energy” value came out at 0.14 kcal/mol.

Consider TGATTCACGTGCGCGG, for which the “relative binding free energy” value came to 0.21 kcal/mol.

Take TGAATCACGTGGTCGG: the “relative binding free energy” value was -0.08 kcal/mol.

For the sequence CGTGGCACGTGGAGAG, the “relative binding free energy” value was found to be 0.04 kcal/mol.

As for AAGGTCACGTGTGCTG, the “relative binding free energy” value is 0.11 kcal/mol.

For TATGGCACGTGGAGCT, the “relative binding free energy” value was -0.07 kcal/mol.

Consider GAGTACACGTGGGGTC, for which the “relative binding free energy” value is -0.12 kcal/mol.

Turning to AGACGCACGTGGGATG, the “relative binding free energy” value was -0.3 kcal/mol.

GGGTGCACGTGATAAG: the “relative binding free energy” value came out at 0.23 kcal/mol.

Consider GGGAACACGTGGATGT, for which the “relative binding free energy” value worked out at 0.09 kcal/mol.

In the case of GAGGTCACGTGTGGAA, the “relative binding free energy” value came to 0.24 kcal/mol.

Consider AGGGTCACGTGGTAAT, for which the “relative binding free energy” value came to 0.18 kcal/mol.

For AATGCCACGTGGTTGT, the “relative binding free energy” value was -0.13 kcal/mol.

In the case of TCGATCACGTGGTTGT, the “relative binding free energy” value came out at 0.16 kcal/mol.

On to CTTGGCACGTGTGGCA, for which the “relative binding free energy” value was -0.15 kcal/mol.

Regarding AGTGGCACGTGCGTGT, the “relative binding free energy” value was -0.18 kcal/mol.

Regarding TGCTACACGTGGGATG, the “relative binding free energy” value is 0.02 kcal/mol.

For TGAGGCACGTGAAGCT, the “relative binding free energy” value came out at 0.18 kcal/mol.

In the case of TTATCCACGTGGTTTG, the “relative binding free energy” value was found to be 0 kcal/mol.

As to CGTGACACGTGGGATG, the “relative binding free energy” value was -0.08 kcal/mol.

Turning to ATTATCACGTGTGTAA, the “relative binding free energy” value turned out to be 0.27 kcal/mol.

As to GGCAGCACGTGGGCTG, the “relative binding free energy” value is -0.33 kcal/mol.

In the case of AGGTGCACGTGATTCG, the “relative binding free energy” value turned out to be 0.16 kcal/mol.

For the sequence GCGAGCACGTGTGGTT, the “relative binding free energy” value was found to be 0.01 kcal/mol.

Take AAGGCCACGTGTATGT: the “relative binding free energy” value was -0.05 kcal/mol.

Regarding AGATTCACGTGGCAGG, the “relative binding free energy” value turned out to be 0.15 kcal/mol.

On to CTAATCACGTGTGGTA, for which the “relative binding free energy” value came out at 0.12 kcal/mol.

For GGACGCACGTGGAAGT, the “relative binding free energy” value is 0.13 kcal/mol.

In the case of TCGGTCACGTGCGTGT, the “relative binding free energy” value is -0.06 kcal/mol.

For ATGGTCACGTGTTGTC, the “relative binding free energy” value was determined as 0.16 kcal/mol.

In the case of CCTTTCACGTGGGCGT, the “relative binding free energy” value worked out at 0.26 kcal/mol.

Take GGTGTCACGTGGAGAT: the “relative binding free energy” value is 0.12 kcal/mol.

On to GGGAACACGTGGAGCG, for which the “relative binding free energy” value was 0.04 kcal/mol.

As to AAAGGCACGTGAGCTG, the “relative binding free energy” value is 0.06 kcal/mol.

AGGGTCACGTGTTGAA: the “relative binding free energy” value was determined as 0.17 kcal/mol.

As to TGAGACACGTGGGGCA, the “relative binding free energy” value is -0.2 kcal/mol.

Turning to CGATTCACGTGGATTT, the “relative binding free energy” value is 0.43 kcal/mol.

Regarding AATTTCACGTGTCTGG, the “relative binding free energy” value is 0.27 kcal/mol.

TAATACACGTGTTTTG: the “relative binding free energy” value came to 0 kcal/mol.

With TAAGGCACGTGTTGGT, the “relative binding free energy” value was -0.07 kcal/mol.

Turning to CTTTACACGTGTTATG, the “relative binding free energy” value turned out to be 0.12 kcal/mol.

Turning to AGGTCCACGTGTCTGG, the “relative binding free energy” value came out at 0.1 kcal/mol.

Turning to TTTTTCACGTGGGCCT, the “relative binding free energy” value amounted to 0.16 kcal/mol.

Regarding TAATACACGTGGGGTC, the “relative binding free energy” value is -0.16 kcal/mol.

On to CGTGCCACGTGGTATG, for which the “relative binding free energy” value was -0.17 kcal/mol.

Turning to CGGTACACGTGGTTGG, the “relative binding free energy” value was found to be 0.03 kcal/mol.

Turning to ACGTTCACGTGATGGA, the “relative binding free energy” value came out at 0.28 kcal/mol.

On to ATGTTCACGTGTCGAG, for which the “relative binding free energy” value came to 0.09 kcal/mol.

As for GTTGGCACGTGAAAAG, the “relative binding free energy” value is 0.06 kcal/mol.

As to GAACGCACGTGGGGGG, the “relative binding free energy” value was -0.27 kcal/mol.

On to AATTGCACGTGCGGGT, for which the “relative binding free energy” value was -0.07 kcal/mol.

Turning to CTATACACGTGATGGG, the “relative binding free energy” value was found to be 0.26 kcal/mol.

For GGCTGCACGTGTGAGG, the “relative binding free energy” value turned out to be 0.1 kcal/mol.

For TCTTACACGTGTTGTA, the “relative binding free energy” value stood at 0.19 kcal/mol.

As to TTGAGCACGTGTAAGG, the “relative binding free energy” value came to 0.02 kcal/mol.

For CTTGACACGTGTTATG, the “relative binding free energy” value was 0.08 kcal/mol.

Take TAATTCACGTGATTGC: the “relative binding free energy” value was determined as 0.35 kcal/mol.

Take TTTTCCACGTGAGTCG: the “relative binding free energy” value was determined as 0.19 kcal/mol.

On to ATAGTCACGTGTTGAG, for which the “relative binding free energy” value is 0.17 kcal/mol.

With TTAGGCACGTGGTACT, the “relative binding free energy” value was -0.19 kcal/mol.

For the sequence TTGGACACGTGTTTAA, the “relative binding free energy” value was found to be 0.14 kcal/mol.

CTAGTCACGTGGCTTT: the “relative binding free energy” value is 0.18 kcal/mol.

On to AATTGCACGTGTAGGA, for which the “relative binding free energy” value worked out at 0.1 kcal/mol.

Consider AGTGCCACGTGTGATG, for which the “relative binding free energy” value is -0.13 kcal/mol.

With TTGAACACGTGTATTG, the “relative binding free energy” value is 0.04 kcal/mol.

GCTGTCACGTGTGAAT: the “relative binding free energy” value came out at 0.38 kcal/mol.

For the sequence TTGTACACGTGTTTGT, the “relative binding free energy” value turned out to be 0.03 kcal/mol.

Consider GTATGCACGTGCGGGA, for which the “relative binding free energy” value was -0.1 kcal/mol.

For AGGGGCACGTGTAGTC, the “relative binding free energy” value was -0.01 kcal/mol.

As to TATGTCACGTGTGGCC, the “relative binding free energy” value amounted to 0.04 kcal/mol.

Take TTTGGCACGTGCTAGT: the “relative binding free energy” value was -0.27 kcal/mol.

On to AGTTGCACGTGTGTGC, for which the “relative binding free energy” value was -0.01 kcal/mol.

With TGCATCACGTGAGGTA, the “relative binding free energy” value was 0.32 kcal/mol.

On to TGAGACACGTGAGTTG, for which the “relative binding free energy” value amounted to 0.32 kcal/mol.

In the case of AATGACACGTGGGATT, the “relative binding free energy” value turned out to be 0.07 kcal/mol.

As for GAGAACACGTGGGGTG, the “relative binding free energy” value is -0.14 kcal/mol.

ATGAGCACGTGGGTCG: the “relative binding free energy” value was -0.1 kcal/mol.

In the case of ATTGCCACGTGGGGGA, the “relative binding free energy” value is -0.3 kcal/mol.

On to ATGCGCACGTGAGTTT, for which the “relative binding free energy” value was found to be 0.02 kcal/mol.

For the sequence TGGGGCACGTGCTTGG, the “relative binding free energy” value was -0.14 kcal/mol.

With TATTTCACGTGAGAAG, the “relative binding free energy” value turned out to be 0.32 kcal/mol.

Regarding GTGCTCACGTGGTGGT, the “relative binding free energy” value was 0.25 kcal/mol.

With TAATGCACGTGTGTGA, the “relative binding free energy” value was -0.05 kcal/mol.

For AGAGGCACGTGGAGTT, the “relative binding free energy” value was -0.06 kcal/mol.

On to AGGTTCACGTGAATGG, for which the “relative binding free energy” value came to 0.29 kcal/mol.

For GGAGGCACGTGATTCG, the “relative binding free energy” value was -0.01 kcal/mol.

As for ATGTGCACGTGTGGGA, the “relative binding free energy” value was -0.01 kcal/mol.

For the sequence CAGGCCACGTGGGCGT, the “relative binding free energy” value is -0.21 kcal/mol.

As to TCGGGCACGTGGTCTG, the “relative binding free energy” value is -0.32 kcal/mol.

With TGGATCACGTGGATTT, the “relative binding free energy” value turned out to be 0.3 kcal/mol.

For GATTGCACGTGGGCGG, the “relative binding free energy” value was -0.09 kcal/mol.

On to TTATGCACGTGCTGTA, for which the “relative binding free energy” value is -0.08 kcal/mol.

With GAGAGCACGTGTAGAG, the “relative binding free energy” value came out at 0.08 kcal/mol.

Turning to TTTATCACGTGGTTCT, the “relative binding free energy” value turned out to be 0.14 kcal/mol.

Regarding GGGTCCACGTGGTTGA, the “relative binding free energy” value is 0.04 kcal/mol.

Take TAAGGCACGTGGTGTT: the “relative binding free energy” value is -0.24 kcal/mol.

Consider TAGAACACGTGCGTGG, for which the “relative binding free energy” value was -0.1 kcal/mol.

For GGTTGCACGTGCAGGT, the “relative binding free energy” value was 0.02 kcal/mol.

Regarding GGGATCACGTGAGGAG, the “relative binding free energy” value was determined as 0.42 kcal/mol.

These data come from the BET-seq Pho4 binding data (Le et al. 2018).
